Laboratory results: PubChem BioAssay AID252 (DTP/NCI, 2004)
Inconclusive results and toxic doses are left out. Not every entry of the source has a single result; some have several. This is not the full list of results. An entry can have further records. The records of an entry repeat one measurement (runs, samples, wells, individuals or studies).

Test system: BDF1 mice, intracerebral L1210 leukemia, survival T/C
Test: NCI In Vivo Anticancer Drug Screen. Data for tumor model L1210 Leukemia (intracerebral) in B6D2F1 (BDF1) mice
Conditions: endpoint: mean survival time, higher = longer survival
Description: The antitumor activity of compounds was measured in mice bearing transplantable tumors. Survival or tumor size were measured and the results are expressed as the measurement made in the treated group (T) divided by the measurement made in the vehicle treated control group (C). The tumor model used in this assay is L1210 Leukemia (intracerebral) in B6D2F1 (BDF1) mice

CC1CCC(NC(=O)N(CCCl)N=O)CC1 (stereo not drawn)
T/C (dose: 12.0 mg/kg/injection, schedule: Q01DX001 (oral), vehicle: other): 124 % of control and 156 % of control

C=CC(CN1CC1)OC(C)=O (stereo not drawn)
T/C (dose: 10.0 mg/kg/injection, schedule: Q01DX Z (ip), vehicle: saline): 114 % of control and 150 % of control | T/C (dose: 15.0 mg/kg/injection, schedule: Q01DX Z (ip), vehicle: saline): 101 % of control and 176 % of control

O=P1(N(CCCl)CCCl)NCCCO1 (stereo not drawn)
T/C (dose: 100.0 mg/kg/injection, schedule: Q01DX001 (ip), vehicle: DMSO): 115 % of control, 122 % of control, 153 % of control | T/C (dose: 400.0 mg/kg/injection, schedule: Q01DX001 (ip), vehicle: DMSO): 71 % of control and 158 % of control

O=NN(CCCl)C(=O)N[C@H]1CCCC[C@H]1Cl
T/C (dose: 26.0 mg/kg/injection, schedule: Q01DX001 (ip), vehicle: carboxymethylcellulose (CMC)): 112 % of control, 117 % of control, 153 % of control

O=NN(CCCl)C(=O)NC1CSCSC1
T/C (dose: 4.0 mg/kg/injection, schedule: Q01DX001 (ip), vehicle: other): 114 % of control and 162 % of control | T/C (dose: 8.0 mg/kg/injection, schedule: Q01DX001 (ip), vehicle: other): 121 % of control and 161 % of control

CCCCCCCCCCCCCCCC(=O)OCC1OC(n2ccc(N)nc2=O)C(O)C1O (stereo not drawn)
T/C (dose: 50.0 mg/kg/injection, schedule: Q01DX001 (ip), vehicle: other): 115 % of control and 161 % of control

N[C@@H](Cc1ccc(N(CCCl)CCCl)cc1)C(=O)O
T/C (dose: 1.7 mg/kg/injection, schedule: Q01DX001 (ip), vehicle: carboxymethylcellulose (CMC)): 103 % of control and 165 % of control | T/C (dose: 7.0 mg/kg/injection, schedule: Q01DX001 (ip), vehicle: carboxymethylcellulose (CMC)): 120 % of control and 159 % of control

Cc1c(C)c(NC(=O)N(CCCl)N=O)c(C)c(C)c1NC(=O)N(CCCl)N=O
T/C (dose: 125.0 mg/kg/injection, schedule: Q01DX001 (ip), vehicle: other): 117 % of control and 150 % of control | T/C (dose: 750.0 mg/kg/injection, schedule: Q01DX001 (ip), vehicle: other): 115 % of control and 167 % of control
